Among the data in US7160888B2, “[1,8]naphthyridin-2-ones and related compounds for the treatment of schizophrenia” (Warner Lambert Company LLC, priority 2003, dated 2007) are Ki values, retold here.

The target in one assay is T1, dopamine D2 receptor (Homo sapiens, UniProt P14416).
T1 sequence (P14416 whole entry): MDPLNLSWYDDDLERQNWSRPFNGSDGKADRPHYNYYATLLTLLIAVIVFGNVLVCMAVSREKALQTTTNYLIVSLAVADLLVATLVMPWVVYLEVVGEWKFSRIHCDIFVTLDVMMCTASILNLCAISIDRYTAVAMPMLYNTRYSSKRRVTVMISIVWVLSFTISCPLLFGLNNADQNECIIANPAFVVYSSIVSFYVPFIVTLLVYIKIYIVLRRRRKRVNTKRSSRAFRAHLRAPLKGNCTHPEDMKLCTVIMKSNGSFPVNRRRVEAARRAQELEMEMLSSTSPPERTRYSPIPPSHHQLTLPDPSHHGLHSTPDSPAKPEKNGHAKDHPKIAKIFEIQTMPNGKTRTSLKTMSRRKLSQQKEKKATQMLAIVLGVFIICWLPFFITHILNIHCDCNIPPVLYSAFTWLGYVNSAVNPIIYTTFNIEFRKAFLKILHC
Assay: not given
The conditions noted are these: read-out: D2 Ki; Table 1; 0.4 nM [3H]spiperone, CHO-hD2L membranes.
For the molecule `COc1cccc(N2CCN(CCCCOc3ccc4c(n3)NC(=O)CC4)CC2)c1C` [Example A24, 7-{4-[4-(3-Methoxy-2-methyl-phenyl)-pierazin-1-yl]-butoxy}-3,4-dihydro-1H-[1,8]naphthyridin-2-one], the inhibitory constant (Ki) worked out at 16.5 nM.

A further assay has as its target T1, dopamine D2 receptor. Description: biochemical. The conditions noted are these: D2 Ki (nM), Table 1; 0.4 nM [3H]spiperone, CHO-hD2L membranes.
In the case of `O=c1ccc2cnc(OCCCCN3CCN(c4cccc5ccccc45)CC3)nc2[nH]1` [Example H4, 2-[4-(4-Naphthalen-1-yl-piperazin-1-yl)-butoxy]-8H-pyrido[2,3-d]pyrimidin-7-one], the Ki is 4.9 nM.
Regarding `Cc1nc(OCCCCN2CCN(c3cccc4ccccc34)CC2)nc2[nH]c(=O)c(F)cc12` [Example H5, 6-Fluoro-4-methyl-2-[4-(4-naphthalen-1-yl-piperazin-1-yl)-butoxy]-8H-pyrido[2,3-d]pyrimidin-7-one], the affinity, expressed as Ki, was 3 nM.
`Cc1nc(OCCCCN2CCN(c3cccc(C(C)C)n3)CC2)nc2[nH]c(=O)ccc12` [Example H6, 2-{4-[4-(6-Isopropyl-pyridin-2-yl)-piperazin-1-yl]-butoxy}-4-methyl-8H-pyrido[2,3-d]pyrimidin-7-one] showed a Ki of 1 nM.
As to `CCc1cccc(N2CCN(CCCCOc3nc(C)c4ccc(=O)[nH]c4n3)CC2)n1` [Example H7, 2-{4-[4-(6-Ethyl-pyridin-2-yl)-piperazin-1-yl]-butoxy}-4-methyl-8H-pyrido[2,3-d]pyrimidin-7-one], the inhibition constant (Ki) worked out at 8.8 nM.
On to `Cc1nc(OCCCCN2CCN(c3cccc4c3CCC4)CC2)nc2[nH]c(=O)ccc12` [Example H8, 2-[4-(4-Indan-4-yl-piperazin-1-yl)-butoxy]-4-methyl-8H-pyrido[2,3-d]pyrimidin-7-one], for which the affinity corresponds to a Ki of 1.3 nM.
The same measure, in the same setting: with `Cc1nc(OCCCCN2CCN(c3cccc4c3CCCC4)CC2)nc2[nH]c(=O)ccc12` [Example H9, 4-Methyl-2-{4-[4-(5,6,7,8-tetrahydro-naphthalen-1-yl)-piperazin-1-yl]-butoxy}-8H-pyrido[2,3-d]pyrimidin-7-one] the figure was 1 nM; with `Cc1nc(OCCCCN2CCN(c3cccc4ccc(F)cc34)CC2)nc2[nH]c(=O)ccc12` [Example H10, 2-{4-[4-(7-Fluoro-naphthalen-1-yl)-piperazin-1-yl]-butoxy}-4-methyl-8H-pyrido[2,3-d]pyrimidin-7-one], 3 nM.
On the same count and under the same terms, with `COc1ccc2cccc(N3CCN(CCCCOc4nc(C)c5ccc(=O)[nH]c5n4)CC3)c2c1` [Example H11, 2-{4-[4-(7-Methoxy-naphthalen-1-yl)-piperazin-1-yl]-butoxy}-4-methyl-8H-pyrido[2,3-d]pyrimidin-7-one] the figure was 0.4 nM; with `Cc1nc(OCCCCN2CCN(c3cccc4ccccc34)CC2)nc2[nH]c(=O)ccc12` [Example H12, 4-Methyl-2-[4-(4-naphthalen-1-yl-piperazin-1-yl)-butoxy]-8H-pyrido[2,3-d]pyrimidin-7-one], 1 nM; with `Cc1nc(OCCCCN2CCN(c3cccc4ccc(F)cc34)CC2)nc2c1ccc(=O)n2C` [Example H13, 2-{4-[4-(7-Fluoro-naphthalen-1-yl)-piperazin-1-yl]-butoxy}-4,8-dimethyl-8H-pyrido[2,3-d]pyrimidin-7-one], 15.4 nM.
The same measure, in the same setting: with `COc1ccc2cccc(N3CCN(CCCCOc4nc(C)c5ccc(=O)n(C)c5n4)CC3)c2c1` [Example H14, 2-{4-[4-(7-Methoxy-naphthalen-1-yl)-piperazin-1-yl]-butoxy}-4,8-dimethyl-8H-pyrido[2,3-d]pyrimidin-7-one] the figure was 9.3 nM; with `O=C1CCc2cnc(CCCCCN3CCN(c4cccc(Cl)c4Cl)CC3)cc2N1` [Example I1, 7-{5-[4-(2,3-Dichloro-phenyl)-piperazin-1-yl]-pentyl}-3,4-dihydro-1H-[1,6]naphthyridin-2-one], 5 nM.
`O=C1CCc2cnc(OCCCCN3CCN(c4cccc5c4CCCC5)CC3)cc2N1` [Example I2, 7-{4-[4-(5,6,7,8-Tetrahydro-naphthalen-1-yl)-piperazin-1-yl]-butoxy}-3,4-dihydro-1H-[1,6]naphthyridin-2-one] returned a Ki of 9 nM.
The molecule `O=C1CCc2cnc(OCCCCN3CCN(c4cccc5ccccc45)CC3)cc2N1` [Example I3, 7-[4-(4-Naphthalen-1-yl-piperazin-1-yl)-butoxy]-3,4-dihydro-1H-[1,6]naphthyridin-2-one] showed an inhibition constant (Ki) of 14.5 nM.
`O=C1CCc2cnc(OCCCCN3CCN(c4cccc5c4CCC5)CC3)cc2N1` [Example I5, 7-[4-(4-Indan-4-yl-piperazin-1-yl)-butoxy]-3,4-dihydro-1H-[1,6]naphthyridin-2-one] came in with an inhibitory constant (Ki) of 13.9 nM.
As for `O=C1CCc2cnc(OCCCCN3CCN(c4cccc5ccc(F)cc45)CC3)cc2N1` [Example I6, 7-{4-[4-(7-Fluoro-naphthalen-1-yl)-piperazin-1-yl]-butoxy}-3,4-dihydro-1H-[1,6]naphthyridin-2-one], the affinity corresponds to a Ki of 1 nM.
`O=C1CCc2cnc(OCCCCN3CCN(c4cccc5ccccc45)CC3)c(Br)c2N1` [Example I7, 8-Bromo-7-[4-(4-naphthalen-1-yl-piperazin-1-yl)-butoxy]-3,4-dihydro-1H-[1,6]naphthyridin-2-one] had an inhibitory constant (Ki) of 7.4 nM.
Turning to `O=C1CCc2cnc(OCCCCN3CCN(c4cccc(Cl)c4Cl)CC3)c(Br)c2N1` [Example I8, 8-Bromo-7-{4-[4-(2,3-dichloro-phenyl)-piperazin-1-yl]-butoxy}-3,4-dihydro-1H-[1,6]naphthyridin-2-one], the inhibitory constant (Ki) was found to be 5.9 nM.
For `O=C1CCc2cnc(OCCCCN3CCN(c4cccc(Cl)c4Cl)CC3)c(Cl)c2N1` [Example I9, 8-Chloro-7-{4-[4-(2,3-dichloro-phenyl)-piperazin-1-yl]-butoxy}-3,4-dihydro-1H-[1,6]naphthyridin-2-one], the affinity corresponds to a Ki of 4.5 nM.
Molecule `O=C1CCc2cnc(OCCCCN3CCN(c4cccc5ccccc45)CC3)c(Cl)c2N1` [Example I10, 8-Chloro-7-[4-(4-naphthalen-1-yl-piperazin-1-yl)-butoxy]-3,4-dihydro-1H-[1,6]naphthyridin-2-one] had a Ki of 9.5 nM.
The same measure, in the same setting: with `COC(=O)c1c(OCCCCN2CCN(c3cccc4ccccc34)CC2)ncc2c1NC(=O)CC2` [Example I11, 7-[4-(4-Naphthalen-1-yl-piperazin-1-yl)-butoxy]-2-oxo-1,2,3,4-tetrahydro-[1,6]naphthyridine-8-carboxylic acid methyl ester] the figure was 8.7 nM; with `O=c1ccc2cnc(OCCCCN3CCN(c4cccc5c4CCCC5)CC3)cc2[nH]1` [Example I14, 7-{4-[4-(5,6,7,8-Tetrahydro-naphthalen-1-yl)-piperazin-1-yl]-butoxy}-1H-[1,6]naphthyridin-2-one], 3.5 nM.
Still for that read-out and setting: with `O=c1ccc2cnc(OCCCCN3CCN(c4cccc5c4CCC5)CC3)cc2[nH]1` [Example I15, 7-[4-(4-Indan-4-yl-piperazin-1-yl)-butoxy]-1H-[1,6]naphthyridin-2-one] the figure was 2.5 nM; with `O=c1ccc2cnc(OCCCCN3CCN(c4cccc5ccccc45)CC3)cc2[nH]1` [Example I16, 7-[4-(4-Naphthalen-1-yl-piperazin-1-yl)-butoxy]-1H-[1,6]naphthyridin-2-one], 2.1 nM.
Same read-out and setting: with `O=c1ccc2cnc(OCCCCN3CCN(c4cccc5ccc(F)cc45)CC3)cc2[nH]1` [Example I17, 7-{4-[4-(7-Fluoro-naphthalen-1-yl)-piperazin-1-yl]-butoxy}-1H-[1,6]naphthyridin-2-one] the figure was 1 nM.
Molecule `O=c1ccc2cnc(NCCCCN3CCN(c4cccc(Cl)c4Cl)CC3)cc2[nH]1` [Example I18, 7-{4-[4-(2,3-Dichloro-phenyl)-piperazin-1-yl]-butylamino}-1H-[1,6]naphthyridin-2-one] came in with an inhibition constant Ki of 1.6 nM.
`CC1(C)OC(=O)Nc2cc(CCCCCN3CCN(c4cccc(Cl)c4Cl)CC3)ncc21` [Example I19, 7-{5-[4-(2,3-Dichloro-phenyl)-piperazin-1-yl]-pentyl}-4,4-dimethyl-1,4-dihydro-pyrido[4,3-d][1,3]oxazin-2-one] showed an inhibition constant (Ki) of 7.5 nM.

Staying with this assay, now noted: D2 Ki (nM), Table 2; 0.4 nM [3H]spiperone, CHO-hD2L membranes.
On to `O=C1CCc2cnc(OCCCCN3CCN(c4cccc5c4OC(F)(F)C(F)(F)O5)CC3)cc2N1` [Example H3′, 7-{4-[4-(2,2,3,3-Tetrafluoro-2,3-dihydro-benzo[1,4]dioxin-5-yl)-piperazin-1-yl]-butoxy}-3,4-dihydro-1H-[1,6]naphthyridin-2-one], for which the affinity, expressed as Ki, was 2 nM.
Molecule `O=C1CCc2cnc(OCCCCN3CCN(c4cccc5c4OC(F)(F)O5)CC3)cc2N1` [Example H4′, 7-{4-[4-(2,2-Difluoro-benzo[1,3]dioxol-4-yl)-piperazin-1-yl]-butoxy}-3,4-dihydro-1H-[1,6]naphthyridin-2-one] returned a Ki of 0.6 nM.
Molecule `O=C1CCc2cnc(OCCCCN3CCN(c4cccc5c4OCCO5)CC3)cc2N1` [Example H5′, 7-{4-[4-(2,3-Dihydro-benzo[1,4]dioxin-5-yl)-piperazin-1-yl]-butoxy}-3,4-dihydro-1H-[1,6]naphthyridin-2-one] came in with an inhibitory constant (Ki) of 5.5 nM.
Molecule `O=c1ccc2cnc(OCCCCN3CCN(c4cccc5c4OCC5)CC3)cc2[nH]1` [Example H6′, 7-{4-[4-(2,3-Dihydro-benzofuran-7-yl)-piperazin-1-yl]-butoxy}-1H-[1,6]naphthyridin-2-one] gave a Ki of 6.5 nM.
The same measure, in the same setting: with `O=c1ccc2cnc(OCCCCN3CCN(c4cccc5c4OCCO5)CC3)cc2[nH]1` [Example H7′, 7-{4-[4-(2,3-Dihydro-benzo[1,4]dioxin-5-yl)-piperazin-1-yl]-butoxy}-1H-[1,6]naphthyridin-2-one] the figure was 3.9 nM.
`O=c1ccc2cnc(OCCCCN3CCN(c4cccc5c4OCCC5)CC3)cc2[nH]1` [Example H8′, 7-[4-(4-Chroman-8-yl-piperazin-1-yl)-butoxy]-1H-[1,6]naphthyridin-2-one]: the Ki amounted to 3.5 nM.
As to `O=c1ccc2cnc(OCCCCN3CCN(c4cccc5c4OC(F)(F)O5)CC3)cc2[nH]1` [Example H9′, 7-{4-[4-(2,2-Difluoro-benzo[1,3]dioxol-4-yl)-piperazin-1-yl]-butoxy}-1H-[1,6]naphthyridin-2-one], the Ki stood at 0.6 nM.
